Assay results: PubChem BioAssay (NCATS)
This list was built around the results that the source calls inconclusive (neither active nor inactive); the mix of calls is not that of the screen. For part of these data: Where the call is inconclusive, the potency comes from a doubtful curve fit. Calls of active or inactive are those of the source. Calls follow the shape of the dose curve; as a rule, active = well fitted curve in the direction sought with a large enough effect; inconclusive = small, poorly fitted or top-dose-only effect, or another doubt; inactive = no such curve, though single readings can be large; an effect the other way counts as inactive or inconclusive.

Assays:
[1] = Primary qHTS for inhibitors of nuclear receptor binding SET domain protein 2 (NSD2) in an isogenic RCH-ACV NSD2 p.E1099K mutant (9B) (AID 1645876); settings: activity change, negative = viability loss: at 44.9 µM (top of the series) unless noted; also: nearly all actives have a fitted effect of over 70% in size; also: potency is read from the fitted curve at half-maximal effect
C33A = assay: Primary qHTS to identify gynecologic anti-cancer compounds using libraries of approved drugs and bioactive compounds (AID 1345084); settings: Gynecologic cancer cell panel viability, ATPlite luminescence, 48 h; series mostly up to 57.5 µM; also: nearly all actives have a fitted effect of over 55% in size; also: potency is read from the fitted curve at half-maximal effect; as to activity change, negative = cytotoxicity: % is scaled to controls: 0 for no effect and ±100 for the full control effect
Outline: (§1)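 Luminescence from the ATPlite ATP-monitoring reagent indicates viable cell number; lower signal means cytotoxicity. Cells received compound 16 h after seeding and were exposed for 48 h across five concentrations.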

CASKI = assay: as above; settings: Gynecologic cancer cell panel viability, ATPlite luminescence, 48 h; series mostly up to 57.5 µM
Outline: as §1

PA-1 = assay: as above; settings: Gynecologic cancer cell panel viability, ATPlite luminescence, 48 h; series mostly up to 57.5 µM
Outline: as §1

[2] = P-glycoprotein substrates identified in KB-8-5-11 adenocarcinoma cell line, qHTS therapeutic library screen (AID 1346987); settings: activity change, negative = cytotoxicity: at 44.5 µM (top of the series); also: nearly all actives have a fitted effect of over 65% in size; also: potency is read from the fitted curve at half-maximal effect
Outline: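 In this qHTS, P-gp-rich KB-8-5-11 cells received library compounds across a concentration range. Viability was quantified by luminescence after 72 h at 37 degree C.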

[3] = Primary qHTS for small molecule stabilizers of the endoplasmic reticulum resident proteome: Secreted ER Calcium Modulated Protein (SERCaMP) assay (AID 1508630); settings: SH-SY5Y GLuc-SERCaMP (Gaussia luciferase released on ER calcium loss) secretion, thapsigargin, luminescence; activity change, negative = inhibition: at 38.4 µM (top of the series) unless noted; also: potency is read from the fitted curve at half-maximal effect
Outline: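 The SH-SY5Y reporter protocol was run at 3 concentrations up to 38.3 uM (primary) or 11 concentrations (follow-up): 16 h compound, 100 nM thapsigargin for 4 h, then extracellular luciferase luminescence.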

Es-2 = assay: Primary qHTS to identify gynecologic anti-cancer compounds using libraries of approved drugs and bioactive compounds (AID 1345084); settings: Gynecologic cancer cell panel viability, ATPlite luminescence, 48 h; series mostly up to 57.5 µM; also: nearly all actives have a fitted effect of over 55% in size; also: potency is read from the fitted curve at half-maximal effect; as to activity change, negative = cytotoxicity: % is scaled to controls: 0 for no effect and ±100 for the full control effect
Outline: as §1

SKOV3 = assay: as above; settings: Gynecologic cancer cell panel viability, ATPlite luminescence, 48 h; series mostly up to 57.5 µM
Outline: as §1

Tov112D = assay: as above; settings: Gynecologic cancer cell panel viability, ATPlite luminescence, 48 h; series mostly up to 57.5 µM
Outline: as §1

HeLa = assay: as above; settings: Gynecologic cancer cell panel viability, ATPlite luminescence, 48 h; series mostly up to 57.5 µM
Outline: as §1

[4] = system: Zika virus NS2B-NS3 protease (linked construct); assay: Primary screen NINDS Rhodamine qHTS for Zika virus inhibitors (AID 1347160)
Outline: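 Aprotinin served as in-plate control. Conditions: 25 nM linked NS2B-NS3, pH 8.0 Tris buffer, titrated compounds, 15 min preincubation and 15 min reaction with 1.5 microM Rhod110 substrate at room temperature.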

Hek293T = assay: Primary qHTS to identify gynecologic anti-cancer compounds using libraries of approved drugs and bioactive compounds (AID 1345084); settings: Gynecologic cancer cell panel viability, ATPlite luminescence, 48 h, control line for the selectivity index; series mostly up to 57.5 µM; also: nearly all actives have a fitted effect of over 55% in size; also: potency is read from the fitted curve at half-maximal effect; as to activity change, negative = cytotoxicity: % is scaled to controls: 0 for no effect and ±100 for the full control effect
Outline: as §1

[5] = system: Zika virus NS2B-NS3 protease (unlinked complex); assay: Primary screen GU Rhodamine qHTS for Zika virus inhibitors: Unlinked NS2B-NS3 protease assay (AID 1347159); settings: Recombinant ZIKV NS2B-NS3 protease, Rhodamine110 substrate fluorescence; activity change, negative = inhibition: at 107 µM (top of the series); also: potency is read from the fitted curve at half-maximal effect; nearly all actives have a fitted effect of over 60% in size
Outline: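 Buffer 10 mM Tris-HCl pH 8.0, 0.01% Tween 20. Unlinked protease 25 nM; compound preincubation 15 min, RT, protected from light. Substrate Rhod110, 1.5 microM; ~15% conversion in 15 min.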

[6] = Primary qHTS for inhibitors of nuclear receptor binding SET domain protein 2 (NSD2) in an RCH-ACV wild type WT cells (2C) (AID 1645877); settings: activity change, negative = cell killing: at 44.9 µM (top of the series) unless noted; also: nearly all actives have a fitted effect of over 70% in size; also: potency is read from the fitted curve at half-maximal effect
JEG-3 = assay: Primary qHTS to identify gynecologic anti-cancer compounds using libraries of approved drugs and bioactive compounds (AID 1345084); settings: Gynecologic cancer cell panel viability, ATPlite luminescence, 48 h; series mostly up to 57.5 µM; also: nearly all actives have a fitted effect of over 55% in size; also: potency is read from the fitted curve at half-maximal effect; as to activity change, negative = cytotoxicity: % is scaled to controls: 0 for no effect and ±100 for the full control effect
Outline: as §1

Tov-21-G = assay: as above; settings: Gynecologic cancer cell panel viability, ATPlite luminescence, 48 h; series mostly up to 57.5 µM
Outline: as §1

[7] = Primary fluorescence-based thiol-reactive (MSTI) qHTS assay for identification of artifact compounds. (AID 1845221);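 also: thiol-reactive compounds lower the probe fluorescence signal; nearly all actives have a fitted effect of over 65% in size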
Outline: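 Compounds were incubated 1 h at room temperature in the dark with the MSTI probe (4 uM) in PBS pH 7.4, 2% DMSO. Signals were normalized between Acetyl-MSTI and MSTI.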

CAOV3 = assay: Primary qHTS to identify gynecologic anti-cancer compounds using libraries of approved drugs and bioactive compounds (AID 1345084); settings: Gynecologic cancer cell panel viability, ATPlite luminescence, 48 h; series mostly up to 57.5 µM; also: nearly all actives have a fitted effect of over 55% in size; also: potency is read from the fitted curve at half-maximal effect
Outline: as §1

OV90 = assay: as above; settings: Gynecologic cancer cell panel viability, ATPlite luminescence, 48 h; series mostly up to 57.5 µM
Outline: as §1
Tags tell the direction and shape of the fitted curve.

COc1ccc(-n2c(SCC#N)nc3sc4c(c3c2=O)CCCC4)cc1
inactive: Potency [1] | Potency (C33A) | Potency (CASKI) | Potency (PA-1)

O=c1[nH]c(=O)n([C@H]2C[C@H](O)[C@@H](CO)O2)cc1C(F)(F)F
inactive: Potency (SKOV3)
inconclusive: Potency [2] 23.1 µM [inhibitor, single point] | Potency [3] 25.1 µM [inhibitor, partial curve, poor fit] | Potency (C33A) 31.6 µM [cytotoxic, single point] | Potency (CASKI) 10 µM [cytotoxic, partial curve] | Potency (Es-2) 25.1 µM [cytotoxic, partial curve, poor fit]
active: Potency (PA-1) 8.91 µM | Potency (Tov112D) 11.2 µM

CC1CCc2cc(F)cc3c(=O)c(C(=O)O)cn1c23 (stereo not given)
inactive: Potency [3] | Potency (C33A) | Potency (HeLa)
inconclusive: Potency [2] 18.4 µM [inhibitor, partial curve, poor fit] | Potency (SKOV3) 31.6 µM [rising, single point]

CC(=O)OC1(C)CC(O)C2(O)C=COC(OC3OC(CO)C(O)C(O)C3O)C12 (stereo not given)
inactive: Potency [4] | Potency [1] | Potency (C33A) | Potency (Hek293T)
inconclusive: Potency (SKOV3) 0.0708 µM [rising, full curve, poor fit]

Cc1cc(N2CCN([C@@H]3CN[C@H](C(=O)N4CCSC4)C3)CC2)n(-c2ccccc2)n1
inconclusive: activity change, negative = cytotoxicity [2] -30.9% [inhibitor] | Potency [5] 44.7 µM [inhibitor, partial curve, poor fit] | Potency [1] 25.8 µM [inhibitor, single point] | Potency [6] 29 µM [inhibitor, partial curve, poor fit] | Potency (JEG-3) 3.98 µM [cytotoxic, single point] | Potency (PA-1) 3.16 µM [cytotoxic, full curve, poor fit] | Potency (SKOV3) 1.26 µM [cytotoxic, partial curve, poor fit]
inactive: Potency (C33A)

CC1=C(CCC(C)CC(=O)O)[C@@]2(C)CCCC(C)(C)C2CC1=O (stereo not given in full)
inactive: Potency (C33A) | Potency (Tov-21-G)
inconclusive: Potency (Hek293T) 0.224 µM [rising, partial curve, poor fit]

C=C1CCC[C@]2(C)CC[C@@H](C(=C)C(=O)O)[C@H](O)[C@@H]12
inactive: Potency [6] | Potency [7] | Potency (C33A)
inconclusive: Potency (CAOV3) 1 µM [cytotoxic, single point]

O=C(OC[C@H]1O[C@H](O[C@H]2CO[C@H](CO)[C@@H](O)[C@@H]2O)[C@H](O)[C@@H](O)[C@H]1O)c1ccccc1
inactive: Potency [6] | Potency (C33A) | Potency (Hek293T) | Potency (JEG-3)
inconclusive: Potency (SKOV3) 2.24 µM [cytotoxic, single point]

O=C(COc1ccc(C(=O)c2ccccc2)cc1)NC1CCN(Cc2ccccc2)CC1
inconclusive: Potency [1] 16.3 µM [inhibitor, partial curve] | Potency [6] 14.5 µM [inhibitor, partial curve] | Potency (C33A) 17.8 µM [cytotoxic, partial curve, poor fit] | Potency (Hek293T) 35.5 µM [cytotoxic, partial curve, poor fit] | Potency (OV90) 25.1 µM [cytotoxic, single point] | Potency (SKOV3) 11.2 µM [cytotoxic, partial curve, poor fit]

CC1(CO)CC[C@]2(C(=O)O[C@@H]3O[C@H](CO)[C@@H](O)[C@H](O)[C@H]3O)CC[C@]3(C)C(=CCC4[C@@]5(C)C[C@H](O)[C@H](O[C@@H]6OC[C@@H](O)[C@H](O)[C@H]6O)[C@@](C)(CO)C5CC[C@]43C)C2C1 (stereo not given in full)
inactive: activity change, negative = viability loss [1] 1.64% [at 9.23 µM] | outcome [6] inactive [at 9.23 µM] | activity change, negative = cytotoxicity (C33A) 5.37% [at 11.6 µM] | activity change, negative = cytotoxicity (CAOV3) -5.98% [at 11.6 µM] | activity change, negative = cytotoxicity (SKOV3) 2.79% [at 11.6 µM]

CC[C@@H]1C(=O)O[C@]23C=C[C@@H]4C(C(=O)OC)=CO[C@H](O[C@@H]12)[C@@H]43
inactive: Potency (C33A)
inconclusive: Potency [5] 50.1 µM [inhibitor, partial curve] | Potency [1] 23 µM [inhibitor, partial curve, poor fit] | Potency [6] 20.5 µM [inhibitor, partial curve, poor fit] | Potency (CASKI) 31.6 µM [cytotoxic, partial curve, poor fit] | Potency (HeLa) 39.8 µM [cytotoxic, single point] | Potency (JEG-3) 31.6 µM [cytotoxic, single point]
